# Assay results taken from PubChem BioAssay AID686970 (National Center for Advancing Translational Sciences (NCATS), 2013).
# The campaign covered roughly 360,000 compounds. About 6,000 (1.7%) were called active. The shares of active, inactive and inconclusive entries below differ from those in the screen. Calls follow the shape of the dose curve; as a rule, active = well fitted cell-killing curve with a large enough effect; inconclusive = small, poorly fitted or top-dose-only effect, or effect the other way; inactive = flat fitted curve, though single readings scatter. No potency is given beside an inconclusive call; the fits are too rough.
# Assay: qHTS for induction of synthetic lethality in tumor cells producing 2HG: qHTS for the HT-1080-NT fibrosarcoma cell line;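 also: NT is the 2HG producing partner of a matched IDH1 knockdown line; nearly all actives have a fitted effect of over 55% in size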;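 as to activity, negative = less viability: 0% = DMSO-treated cells and -100% = media-only wells without cells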
# Conditions: HT-1080-NT fibrosarcoma viability, CellTiter-Glo ATP luminescence, 48 h; activity, negative = less viability: at 46.1 µM (top of the series) unless noted
# Procedure, shortened: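 750 cells/well, RPMI + 5% FBS; 2 h settle, compound pin-transfer, 48 h at 37 degrees C. CellTiter-Glo 10 min RT, luminescence. Normalized to DMSO and media-only wells.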
# Potency is read from the fitted curve at half-maximal effect; tags tell the direction and shape of the fitted curve.
SMILES,Potency,"activity, negative = less viability"
O=[N+]([O-])c1cccc(N/N=C/c2cc([N+](=O)[O-])ccc2O)c1,active: 23.1 µM,–
CC(Oc1ccc(Br)cc1)C(=O)NCCCN1CCCC1=O (stereo not drawn),inactive,–
Cc1ccc(S(=O)(=O)Nc2ccc3c(c2)C(=O)c2ccccc2-3)cc1,"inconclusive [cytotoxic, single point]",–
CCOC(=O)COc1cccc2c(=O)n(CC(=O)NCc3ccc4c(c3)OCO4)ccc12,active: 4.61 µM,–
O=S(=O)(N[C@H]1C[C@@H](NS(=O)(=O)OCC(Cl)(Cl)Cl)C2CCCCC21)OCC(Cl)(Cl)Cl (stereo partly drawn),inactive,–
Cc1ccc2[nH]c(=O)c(CN(Cc3ccc4c(c3)OCO4)Cc3nnnn3Cc3ccco3)cc2c1,inactive,–
CCOC(=O)[C@]12CCCC=C1N(Cc1ccc(Cl)cc1Cl)C(=O)[C@H](CC(=O)NCc1ccc(C)o1)C2,"inconclusive [cytotoxic, single point]",–
O=C1/C(=C/c2ccco2)CCC1C1CCCC1 (stereo not drawn),"inconclusive [rising, single point]",–
O=C(O)CN=C(Nc1cc(Cl)cc(Cl)c1)NC(c1ccccc1)c1ccccc1,"inconclusive [cytotoxic, single point]",–
COc1ccc(NC(=O)c2ccc(N3C(=O)C4CC=C(Cl)CC4C3=O)cc2)cc1 (stereo not drawn),inactive,–
CC(C)(C)c1cc(C(=O)Nc2ccc(F)cc2)n(Cc2ccc(F)cc2)n1,"inconclusive [cytotoxic, single point]",–
CCCCN(CC)CCCNC(=O)C1CCN(c2ncnc3c2sc2cccc(F)c23)CC1,active: 20.6 µM,–
COc1ccc(C2c3ccc4ccccc4c3Oc3ncn(Cc4ccco4)c(=N)c32)cc1OC (stereo not drawn),active: 20.6 µM,–
CN(CC(=O)Nc1ccc(F)cc1)C(=O)c1cn(-c2ccccc2)nc1-c1cccs1,inactive,–
Cc1ccc(Cl)cc1N1CCN(Cc2nc3c(c(=O)[nH]c(=O)n3C)n2Cc2ccccc2F)CC1,"inconclusive [cytotoxic, single point]",–
Cc1cc(=O)[nH]c(SCC(=O)Nc2ccc(Br)cc2)c1C#N,"inconclusive [cytotoxic, single point]",–
O=C(NC1CCCCC1)C(c1ccnc2ccccc12)n1c(=O)c(-c2cc3ccccc3[nH]2)nc2ccccc21 (stereo not drawn),"inconclusive [cytotoxic, single point]",–
CC(Nc1ccc(Cl)cc1)c1cc(Cl)ccc1O (stereo not drawn),"inconclusive [cytotoxic, single point]",–
CC(=O)Nc1cc(-c2cccc(C(=O)NCCN(C)C)c2)cn2c(-c3cccc(C(F)(F)F)c3)cnc12,active: 18.4 µM,–
C=CCc1cccc(/C=N/NC(=O)C[n+]2ccccc2)c1O,"inconclusive [cytotoxic, partial curve]",–
O=S(=O)(Nc1c(S(=O)(=O)c2ccccc2)c2nc3ccccc3nc2n1C1CCCCC1)c1ccccc1,"inconclusive [cytotoxic, partial curve]",–
O=C1C=C(c2cc3ccccc3s2)CCC1,inactive,–
Cc1ccc(OCc2ccc(C(=O)Nc3cc(C)on3)o2)c([N+](=O)[O-])c1,"inconclusive [cytotoxic, partial curve]",–
Cc1ccc2cc(CCNC(=O)C(C)C)c(=O)[nH]c2c1C,"inconclusive [rising, single point]",–
Cc1ccc2cc(NC(=O)c3ccc(C(C)(C)C)cc3)ccc2n1,"inconclusive [cytotoxic, partial curve]",–

SMILES,Potency,"activity, negative = less viability"
O=c1cnnc(N/N=C/c2ccccn2)[nH]1,"inconclusive [cytotoxic, full curve]",–
COC(=O)CN(C#N)c1nc(NC(C)C)nc(OC)n1,inactive,–
COC(=O)c1cc2sc(Cl)cc2n1CC(=O)Nc1ccc(OC)c(OC)c1OC,"inconclusive [cytotoxic, partial curve, poor fit]",–
CCOC(=O)C1C(=O)CC(C)(O)C(C(=O)OCC)C1c1cccc(OC)c1 (stereo not drawn),–,inconclusive: 7.93% [cytotoxic]
Brc1ccccc1OCCNCc1ccccc1,inactive,–
CCOC(=O)CSC1=C(C#N)C(c2ccc(C)o2)CC(=O)N1 (stereo not drawn),active: 1.03 µM,–
Cc1c(C(=O)NC(=S)NCc2cccnc2)cccc1[N+](=O)[O-],"inconclusive [rising, full curve, poor fit]",–
COc1ccc(C(=O)C/C(=C\C(=O)c2ccc(C)cc2)c2ccccc2)cc1,"inconclusive [cytotoxic, single point]",–
CCO[C@@H]1OC(C(=O)NCc2nc3ccccc3[nH]2)=C[C@H](C2CC2)[C@H]1CCCO,active: 18.4 µM,–
O=S(=O)(c1ccc(NC(=S)NCc2ccncc2)cc1)N1CCCCC1,"inconclusive [cytotoxic, single point]",–
COC(=O)/C=C1\OCc2cc(C)ccc21,"inconclusive [rising, single point]",–
O=C1CC(c2cc(Br)ccc2F)c2cc3c(cc2N1)CCC3 (stereo not drawn),active: 1.78 µM,–
Cc1cccc(C(=O)N[C@H](C(=O)Nc2nc(C)cs2)C(C)C)c1,inactive,–
CC1CC(=O)Nc2ccccc2N1C(=O)CSc1ncnc2sccc12 (stereo not drawn),inactive,–
Cc1c(C(c2ccc(F)cc2)c2c(C)n(C)n(-c3ccccc3)c2=O)c(=O)n(-c2ccccc2)n1C,inactive,–
COc1ccc2c(c1)Cc1sc(NC(=O)c3cccs3)nc1-2,"inconclusive [cytotoxic, single point]",–
Cc1ccccc1NCC(=O)N=Nc1c(O)[nH]c2ccc([N+](=O)[O-])cc12,"inconclusive [cytotoxic, single point]",–
Cc1ccc(S(=O)(=O)Nc2ccccc2-c2ccccc2NS(=O)(=O)c2ccc(C)cc2)cc1,"inconclusive [cytotoxic, single point]",–
CC(C)(C)c1ccc(C2=NC(=O)C(CC(=O)O)S2)cc1 (stereo not drawn),inactive,–
O=C(Nc1ccc(OC(F)(F)F)cc1)C1CCCN(S(=O)(=O)c2cccnc2)C1 (stereo not drawn),inactive,–
COc1cc(CNC(C)c2ccccc2)cc(Br)c1OCc1ccccc1 (stereo not drawn),active: 16.4 µM,–
CCN(CC)CCCNC(=O)c1oc2ccc(S(=O)(=O)N3CC(C)CC(C)C3)cc2c1C (stereo not drawn),"inconclusive [cytotoxic, single point]",–
O=C(CNC(=O)c1cccc(F)c1)N/N=C/c1cc(Br)ccc1OC(=O)/C=C/c1ccco1,"inconclusive [cytotoxic, full curve]",–
CCOC(=O)C1=CN(c2cccc(F)c2)C=C(C(=O)OCC)C1c1cc(OC)c(O)c([N+](=O)[O-])c1,"inconclusive [cytotoxic, single point]",–
COc1ccc(NC(=O)c2cn3c(nc4ccccc43)c(C#N)c2C)cc1,"inconclusive [rising, partial curve]",–

SMILES,Potency,"activity, negative = less viability"
COc1ccc(C(=O)NC23CC4CC(CC(C4)C2)C3)cc1OC,inactive,–
Cc1ccc(/C=C2/NC(=O)N(Cc3ccc(Br)cc3)C2=O)o1,inactive,–
COc1ccccc1NC(=O)Nc1nc(C(N)C(C)C)cs1 (stereo not drawn),"inconclusive [cytotoxic, single point]",–
COc1ccc(CNC(=O)C(=O)NCCC2CCCCN2S(=O)(=O)c2cccs2)cc1 (stereo not drawn),inactive,–
O=C1Nc2cnc(Cl)nc2Nc2ccccc21,inactive,–
COc1ccc(NC(=O)COc2ccc(/C=N/O)cc2OC)cc1,–,inconclusive: 13%
CC(=O)/C(N=Nc1ccc(OC(F)(F)F)cc1)=C(\C)O,"inconclusive [rising, single point]",–
Cc1cc(C)c(C)c(C(=O)c2ccccc2C(=O)O)c1C,inactive,–
CN(C)CCOC1c2ccccc2CCc2ccc3ccccc3c21 (stereo not drawn),active: 20.6 µM,–
CN1C=C/C(=C\c2cc[n+](C)c3ccccc23)c2ccccc21,"inconclusive [cytotoxic, full curve]",–
O=C(NC1CCCCCCC1)c1cc(COc2ccc3ncccc3c2)on1,inactive,–
O=C(N/N=C/C(Br)=C/c1ccccc1)c1ccccc1F,"inconclusive [cytotoxic, single point]",–
C[C@H](CO)N1C[C@H](C)[C@@H](CN(C)C(=O)Nc2ccc3c(c2)OCO3)Oc2ccc(NC(=O)Nc3ccc4c(c3)OCO4)cc2C1=O,inactive,–
CN1c2ccc([N+](=O)[O-])cc2N(C)C1(C)c1ccccc1 (stereo not drawn),"inconclusive [cytotoxic, single point]",–
O=[N+]([O-])c1cnccc1-n1nnc2ccccc21,"inconclusive [cytotoxic, partial curve]",–
Nc1nc(SCc2ccccc2)c2ncn(C3CCCCC3)c2n1,"inconclusive [cytotoxic, full curve, poor fit]",–
CNc1oc(-c2ccccc2Cl)nc1P(=O)(c1ccccc1)c1ccccc1,"inconclusive [cytotoxic, single point]",–
COc1ccc(F)cc1S(=O)(=O)NCC1CCCO1 (stereo not drawn),"inconclusive [rising, single point]",–
COc1ccc(NC(=O)C2Cc3c(-c4cccc(C(N)=O)c4)ccnc3O2)cc1OC (stereo not drawn),"inconclusive [cytotoxic, single point]",–
CN1N=C(/C=C/c2ccccc2)CCC1=O,inactive,–
CN(CCC#N)C(=S)Nc1ccc(S(=O)(=O)N2CCOCC2)cc1,inactive,–
CCOC(=O)CSc1nc(Cc2ccccc2)nc2ccccc12,inactive,–
Cc1cccc(C)c1OCC(C)N (stereo not drawn),–,inconclusive: -2.82%
